Numbering of substitutions follows the chain as printed; changes in the protein carry UniProt numbers. This is one part of the list.
B1: GUAACAU (DNA:RNA)
RNA: GGGAGACCGGAAUUCAGAUUGUCCGUAACAUUUAAAUCCCGUCGUAGCCACCA
DNA 1: CAATCTGAATTCCGGTCTCCC
DNA 2: TGGTGGCTACGACGGGATT
B2: UCAUCGA (DNA:RNA)
RNA: B1 RNA with G25U, U26C, A28U, A30G, U31A
DNA 1: CAATCTGAATTCCGGTCTCCC
DNA 2: TGGTGGCTACGACGGGATT
B3: CUUUGGU (DNA:RNA)
RNA: B1 RNA with G25C, A27U, A28U, C29G, A30G
DNA 1: CAATCTGAATTCCGGTCTCCC
DNA 2: TGGTGGCTACGACGGGATT
B4: AGGCUGG (DNA:RNA)
RNA: GGGAGACCGGAAUUCAGAUUGUCCAGGCUGGUUAAAUCCCGUCGUAGCCACCA
DNA 1: CAATCTGAATTCCGGTCTCCC
DNA 2: TGGTGGCTACGACGGGATT
B5: UCGUUUG (DNA:RNA)
RNA: B4 RNA with A25U, G26C, C28U, G30U
DNA 1: CAATCTGAATTCCGGTCTCCC
DNA 2: TGGTGGCTACGACGGGATT
B6: AAUGACC (DNA:RNA)
RNA: B4 RNA with G26A, G27U, C28G, U29A, G30C, G31C
DNA 1: CAATCTGAATTCCGGTCTCCC
DNA 2: TGGTGGCTACGACGGGATT
B7: AUUGUCU (DNA:RNA)
RNA: B4 RNA with G26U, G27U, C28G, G30C, G31U
DNA 1: CAATCTGAATTCCGGTCTCCC
DNA 2: TGGTGGCTACGACGGGATT
B8: UUACGCG (DNA:RNA)
RNA: B4 RNA with A25U, G26U, G27A, U29G, G30C
DNA 1: CAATCTGAATTCCGGTCTCCC
DNA 2: TGGTGGCTACGACGGGATT
B9: AUUUCUC (DNA:RNA)
RNA: B1 RNA with G25A, A27U, A28U, A30U, U31C
DNA 1: CAATCTGAATTCCGGTCTCCC
DNA 2: TGGTGGCTACGACGGGATT
B10: GGUUACG (DNA:RNA)
RNA: B4 RNA with A25G, G27U, C28U, U29A, G30C
DNA 1: CAATCTGAATTCCGGTCTCCC
DNA 2: TGGTGGCTACGACGGGATT
B11: AGAACGU (DNA:RNA)
RNA: B1 RNA with G25A, U26G, A30G
DNA 1: CAATCTGAATTCCGGTCTCCC
DNA 2: TGGTGGCTACGACGGGATT
B12: CCCUUGG (DNA:RNA)
RNA: B4 RNA with A25C, G26C, G27C, C28U
DNA 1: CAATCTGAATTCCGGTCTCCC
DNA 2: TGGTGGCTACGACGGGATT
B13: AGUAAUG (DNA:RNA)
RNA: B4 RNA with G27U, C28A, U29A, G30U
DNA 1: CAATCTGAATTCCGGTCTCCC
DNA 2: TGGTGGCTACGACGGGATT
B14: AAUCCGG (DNA:RNA)
RNA: B4 RNA with G26A, G27U, U29C
DNA 1: CAATCTGAATTCCGGTCTCCC
DNA 2: TGGTGGCTACGACGGGATT
B15: UCCCCUC (DNA:RNA)
RNA: B4 RNA with A25U, G26C, G27C, U29C, G30U, G31C
DNA 1: CAATCTGAATTCCGGTCTCCC
DNA 2: TGGTGGCTACGACGGGATT
B16: GAUCUUG (DNA:RNA)
RNA: B4 RNA with A25G, G26A, G27U, G30U
DNA 1: CAATCTGAATTCCGGTCTCCC
DNA 2: TGGTGGCTACGACGGGATT
B17: CGGCAAG (DNA:RNA)
RNA: B4 RNA with A25C, U29A, G30A
DNA 1: CAATCTGAATTCCGGTCTCCC
DNA 2: TGGTGGCTACGACGGGATT
B18: GUUGAAC (DNA:RNA)
RNA: B1 RNA with A27U, A28G, C29A, U31C
DNA 1: CAATCTGAATTCCGGTCTCCC
DNA 2: TGGTGGCTACGACGGGATT
B19: CCGACCA (DNA:RNA)
RNA: B1 RNA with G25C, U26C, A27G, A30C, U31A
DNA 1: CAATCTGAATTCCGGTCTCCC
DNA 2: TGGTGGCTACGACGGGATT
B20: CAGGUAU (DNA:RNA)
RNA: B4 RNA with A25C, G26A, C28G, G30A, G31U
DNA 1: CAATCTGAATTCCGGTCTCCC
DNA 2: TGGTGGCTACGACGGGATT
B21: CGUACAC (DNA:RNA)
RNA: B1 RNA with G25C, U26G, A27U, U31C
DNA 1: CAATCTGAATTCCGGTCTCCC
DNA 2: TGGTGGCTACGACGGGATT
B22: GCGAAUG (DNA:RNA)
RNA: B4 RNA with A25G, G26C, C28A, U29A, G30U
DNA 1: CAATCTGAATTCCGGTCTCCC
DNA 2: TGGTGGCTACGACGGGATT
B23: UAAUGAC (DNA:RNA)
RNA: B1 RNA with G25U, U26A, A28U, C29G, U31C
DNA 1: CAATCTGAATTCCGGTCTCCC
DNA 2: TGGTGGCTACGACGGGATT
B24: UCGCUAU (DNA:RNA)
RNA: B4 RNA with A25U, G26C, G30A, G31U
DNA 1: CAATCTGAATTCCGGTCTCCC
DNA 2: TGGTGGCTACGACGGGATT
B25: CGCCAAU (DNA:RNA)
RNA: B4 RNA with A25C, G27C, U29A, G30A, G31U
DNA 1: CAATCTGAATTCCGGTCTCCC
DNA 2: TGGTGGCTACGACGGGATT
B26: UAACCAA (DNA:RNA)
RNA: B1 RNA with G25U, U26A, A28C, U31A
DNA 1: CAATCTGAATTCCGGTCTCCC
DNA 2: TGGTGGCTACGACGGGATT
B27: ACCAGCG (DNA:RNA)
RNA: B4 RNA with G26C, G27C, C28A, U29G, G30C
DNA 1: CAATCTGAATTCCGGTCTCCC
DNA 2: TGGTGGCTACGACGGGATT
B28: CCACGGA (DNA:RNA)
RNA: B4 RNA with A25C, G26C, G27A, U29G, G31A
DNA 1: CAATCTGAATTCCGGTCTCCC
DNA 2: TGGTGGCTACGACGGGATT
B29: UAAGAGA (DNA:RNA)
RNA: B4 RNA with A25U, G26A, G27A, C28G, U29A, G31A
DNA 1: CAATCTGAATTCCGGTCTCCC
DNA 2: TGGTGGCTACGACGGGATT
B30: GCAGAUG (DNA:RNA)
RNA: B1 RNA with U26C, A28G, C29A, A30U, U31G
DNA 1: CAATCTGAATTCCGGTCTCCC
DNA 2: TGGTGGCTACGACGGGATT
B31: CAACGAA (DNA:RNA)
RNA: B1 RNA with G25C, U26A, A28C, C29G, U31A
DNA 1: CAATCTGAATTCCGGTCTCCC
DNA 2: TGGTGGCTACGACGGGATT

Each binder was assayed against T1, RBFOX1 RRM RbFoxmut (Fox-RRM*) (Homo sapiens, UniProt Q9NWB1 109-208, R118D;E147R;N151S;E152T) (assay: EMSA; HiTS-Eq, 1 nM pool, 10 min; buffer printed only for the single-RNA assays: 10 mM Tris pH 7.5, 150 mM NaCl, 3.4 mM EDTA, 0.001% NP-40, 30 C). Conditions: tags: His6 N-terminal (pET28a); label: 5' 32P.
T1 sequence: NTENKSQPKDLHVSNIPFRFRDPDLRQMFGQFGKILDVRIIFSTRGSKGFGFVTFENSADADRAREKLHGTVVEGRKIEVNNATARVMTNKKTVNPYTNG
How it was run: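 Purified RbFox RRM, wild type or mutant, was incubated for 10 min in 50 µL with 1 nM of a 5′-radiolabelled RNA pool carrying 7 randomized nucleotides, whose flanks were annealed to DNA oligonucleotides, over a series of increasing protein concentrations. Unbound RNA was resolved on 8% native PAGE, cut out, reverse-transcribed, barcoded by PCR and sequenced on an Illumina HiSeq 2500. Relative association constants were derived from changes in read counts for each RNA species versus the control reaction and normalised to the cognate motif.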

In order of rising binding signal:
1. B14  0.062 KA relative to UGCAUGU
2. B25  0.0641 KA relative to UGCAUGU
3. B26  0.0641 KA relative to UGCAUGU
4. B21  0.0672 KA relative to UGCAUGU
5. B15  0.0702 KA relative to UGCAUGU
6. B28  0.0732 KA relative to UGCAUGU
7. B12  0.0771 KA relative to UGCAUGU
8. B19  0.0776 KA relative to UGCAUGU
9. B23  0.0801 KA relative to UGCAUGU
10. B2  0.0826 KA relative to UGCAUGU
11. B17  0.0849 KA relative to UGCAUGU
12. B16  0.0882 KA relative to UGCAUGU
13. B29  0.0902 KA relative to UGCAUGU
14. B7  0.091 KA relative to UGCAUGU
15. B31  0.0916 KA relative to UGCAUGU
16. B9  0.0923 KA relative to UGCAUGU
17. B1  0.0942 KA relative to UGCAUGU
18. B6  0.0968 KA relative to UGCAUGU
19. B3  0.0992 KA relative to UGCAUGU
20. B18  0.104 KA relative to UGCAUGU
21. B24  0.104 KA relative to UGCAUGU
22. B8  0.108 KA relative to UGCAUGU
23. B27  0.12 KA relative to UGCAUGU
24. B4  0.124 KA relative to UGCAUGU
25. B13  0.142 KA relative to UGCAUGU
26. B30  0.142 KA relative to UGCAUGU
27. B11  0.149 KA relative to UGCAUGU
28. B10  0.15 KA relative to UGCAUGU
29. B20  0.152 KA relative to UGCAUGU
30. B5  0.396 KA relative to UGCAUGU
31. B22  1.44 KA relative to UGCAUGU

From publication PMC9911399, “Two distinct binding modes provide the RNA-binding protein RbFox with extraordinary sequence specificity”
